Reference: PubChem BioAssay AID1508624 (National Center for Advancing Translational Sciences (NCATS), 2021)
In all, about 48,000 compounds went through this assay and about 120 (0.25%) were called active. Another 4% or so got no clear call; they are omitted. Calls come from the whole dose curve; as a rule, active = well fitted activation curve with a large enough effect; inconclusive = small, poorly fitted or top-dose-only effect, or another doubt; inactive = no such curve, though single readings can be large or run the other way. This is one part of the list.

test: Primary qHTS for Identification of Small Molecule Activators of Huntingtin-Antisense Promoter Activity; conditions: HEK293 HTT-AS promoter firefly luciferase reporter (activity 0% = vehicle and -100% = no light), 24 h; series mostly up to 57.5 µM; activity change, positive = activation: at the top concentration; note: nearly all actives have a fitted effect of over 55% in size
How it was run: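 HEK293 cells carrying firefly luciferase reporters were seeded at 2,500 per well in Opti-MEM and cultured for 24 h. They were then treated with compounds at up to 57.5 uM final for 24 h at 37 degrees C before Dual-Glo luminescence readout.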

Activity change, positive = activation, inactive:
COc1cccc(C2=CC(c3ccccc3F)n3ncc(C(=O)Nc4ccc(C)cc4)c3N2)c1 (configuration not stated) -54.1%
Cc1cc(C)cc(-n2ccnc(NCCc3ccccc3)c2=O)c1 18.9%
CCOC(=O)c1cc2c(=O)n3ccccc3nc2n(CC(C)C)c1=NC(=O)COc1ccc(Cl)cc1 17.7%
COc1ccc(C(=O)Nc2ccc3nc4c(c(Nc5ccc(OC)c(OC)c5)c3c2)CCCC4)c(OC)c1 -6.99%
COc1ccc(-c2nc(CS(=O)CC(=O)NCCc3ccccc3)c(C)o2)cc1OC (configuration not stated) -5.07%
Cc1cc(N2CCN(C)CC2)nc2ccc(NC(=O)c3ccc(C(C)(C)C)cc3)cc12 -17.6%
Cc1ccc(-n2nc(C(=O)Nc3ccc(F)cc3Cl)c(=O)n(C)c2=O)cc1 -2.42%
CN(Cc1ccccc1)c1nnc(NC(=O)Nc2cccc(Br)c2)s1 -34.3%
CCN(CC)S(=O)(=O)c1ccc(NC(=O)c2cc3ccc4cccnc4c3[nH]2)cc1 -13.1%
C=CC(=O)N1CCC[C@@H](n2nc(-c3ccc(Oc4ccccc4)cc3)c3c(N)ncnc32)C1 -17.9%
Cc1ccc(C(=O)n2nc(C)c(S(=O)(=O)N3CCCCCC3)c2C)cc1C -14.2%
COc1ccccc1NC(=O)CSc1nc(O)c(C/C=C/c2ccccc2)c(=O)[nH]1 -33.1%
CCc1nnc(NC(=O)CSc2nccn2Cc2ccc(C)cc2)s1 -22%
COc1ccc(CNC(=O)c2nc(SCc3ccc(C)cc3)ncc2Cl)cc1 -23%
COc1ccc(Cn2c(=O)n(-c3ccc(F)c(Cl)c3)c(=O)c3c2c2cc(OC)ccc2n3C)cc1 -6.02%
CCOC(=O)c1c(S(=O)(=O)N2CCC(C(=O)NCc3cccc(C)c3)CC2)c(C)n(C)c1C 0%
CCOc1cccc2sc(N3CCN(C(=O)c4ccc5c(c4)CCCC5)CC3)nc12 -12.6%
CC(C)C(NS(=O)(=O)c1ccc2c(c1)oc(=O)n2C)C(=O)N1CCN(c2cccc(Cl)c2)CC1 (configuration not stated) -24.1%
CCN(CC)C(=O)c1ccc2c(c1)N(Cc1c(F)cccc1Cl)C(=O)c1ccccc1S2 -22.3%
Cc1ccn2c(Nc3c(C)cccc3C)c(-c3ccsc3)nc2c1 -25.3%
COc1ccc(N2CC(NC(=O)c3cccs3)CC2=O)cc1 (configuration not stated) -12.3%
O=C(CSc1nc(=O)[nH]c2c1CCCC2)Nc1ccc(Cl)c(Cl)c1 -13%
CC1CN(C(=O)CCC(=O)NCc2cccc(Cl)c2)c2ccccc2S1 (configuration not stated) -24.3%
O=C(O)c1ccc(Cn2cnc3cccnc32)cc1 -15.6%
CC1CCN(CC2CCN(C(=O)NCc3ccc(F)cc3)CC2)CC1 -6.03%
COc1ccccc1C(=O)N(Cc1nc(-c2cccc(C)c2)no1)C(C)C -22.6%
COc1ccc(S(=O)(=O)c2cnc3cc(OC)c(OC)cc3c2N2CCCC(C)C2)cc1 (configuration not stated) -26.7%
